B1: soluble recombinant integrin αIIbβ3 [not stated] / sCD40L ([…]), wild type, lacking the KGD motif [not stated] (parent complex)
chain 1: not shown
chain 2: GPNICTTRGVSSCQQCLAVSPMCAWCSDEALPLGSPRCDLKENLLKDNCAPESIEFPVSEARVLEDRPLSDKGSGDSSQVTQVSPQRIALRLRPDDSKNFSIQVRQVEDYPVDIYYLMDLSYSMKDDLWSIQNLGTKLATQMRKLTSNLRIGFGAFVDKPVSPYMYISPPEALENPCYDMKTTCLPMFGYKHVLTLTDQVTRFNEEVKKQSVSRNRDAPEGGFDAIMQATVCDEKIGWRNDASHLLVFTTDAKTHIALDGRLAGIVQPNDGQCHVGSDNHYSASTTMDYPSLGLMTEKLSQKNINLIFAVTENVVNLYQNYSELIPGTTVGVLSMDSSNVLQLIVDAYGKIRSKVELEVRDLPEELSLSFNATCLNNEVIPGLKSCMGLKIGDTVSFSIEAKVRGCPQEKEKSFTIKPVGFKDSLIVQVTFDCDCACQAQAEPNSHRCNNGNGTFECGVCRCGPGWLGSQC
chain 3: QNPQIAAHVISEASSKTTSVLQWAEKGYYTMSNNLVTLENGKQLTVKRQGLYYIYAQVTFCSNREASSQAPFIASLCLKSPGRFERILLRAANTHSSAKPCGQQSIHLGGVFELQPGASVFVNVTDPSQVSHGTGFTSFGLLKL

The variants in one test derive from B1. In words: ELISA-type binding assay (CD40L immobilized to wells; bound soluble αIIbβ3 detected with anti-β3 mAb and HRP-conjugated anti-mouse IgG); 25 µg/mL CD40L coating; 1 mM Mn2+; 1 hr at room temperature; parent: 0.53; read off a plot. Background: An ELISA detects its analyte on a solid surface through an enzyme-linked reagent.
Take chain 3 S11R, chain 3 E12G: the response is approximately 0.33 OD450.
Still for that read-out and setting: as for chain 3 L38P, the figure is approximately 0.28 OD450; as for chain 3 K26T, approximately 0.55 OD450.

In the next test the parent is B1. In words: ELISA-type binding assay (CD40L immobilized to wells; bound soluble αIIbβ3 detected with anti-β3 mAb and HRP-conjugated anti-mouse IgG); 50 µg/mL CD40L coating; 1 mM Mn2+; 1 hr at room temperature; parent: 0.64; read off a plot.
Regarding chain 3 S11R, chain 3 E12G, the response was approximately 0.53 OD450.
Still for that read-out and setting: as for chain 3 L38P, the figure is approximately 0.37 OD450; as for chain 3 K26T, approximately 0.7 OD450.

(Values after PMC10416995 (2023).)
